# Measurements published in the supplement of paper PMC8728848.
# Some of the results follow.
# B1: GALT1 615 (Arabidopsis thaliana), Q8L7F9 (protein)
# chain: DPMRGSHHHHHHGMASMTGGQQMGRDLYDDDDKSRLQKPYITAAASVVVTPNTTLPMEWLRITLPDFMKEARNTQEAISGDDIAVVSGLFVEQNVSKEEREPLLTWNRLESLVDNAQSLVNGVDAIKEAGIVWESLVSAVEAKKLVDVNENQTRKGKEELCPQFLSKMNATEADGSSLKLQIPCGLTQGSSITVIGIPDGLVGSFRIDLTGQPLPGEPDPPIIVHYNVRLLGDKSTEDPVIVQNSWTASQDWGAEERCPKFDPDMNKKVDDLDECNKMVGGEINRTSSTSLQSNTSRGVPVAREASKHEKYFPFKQGFLSVATLRVGTEGMQMTVDGKHITSFAFRDTLEPWLVSEIRITGDFRLISILA
# Key:
# Assay in all cases: glycan array binding signal (z-score within array); higher = stronger binding
# Settings in all cases: glycan notation: IUPAC condensed, linker removed
# Neu5Ac(a2-6)Gal(b1-4)Glc = target: Neu5Ac(a2-6)Gal(b1-4)Glc
# In short: (§1)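 Glycan array data were curated from 3228 arrays in the Consortium for Functional Glycomics database and kept only where the protein sequence was available. Glycan names were converted to IUPAC-condensed notation, and columns mapping to the same glycan were averaged. The binding signal is a within-array Z-score, averaged across arrays of the same protein sequence at different concentrations or buffers and across linkers. Negative Z-scores can be read as non-binding.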
# [1] = target: Neu5Ac(a2-6)Gal(b1-4)GlcNAc
# In short: as §1
# [2] = target: Neu5Ac(a2-6)Gal(b1-4)GlcNAc(b1-2)Man(a1-3)Man(b1-4)GlcNAc(b1-4)GlcNAc
# In short: as §1
# [3] = target: Neu5Ac(a2-6)Gal(b1-4)GlcNAc(b1-2)Man(a1-3)[Gal(b1-4)GlcNAc(b1-2)Man(a1-6)]Man(b1-4)GlcNAc(b1-4)GlcNAc
# In short: as §1
# [4] = target: Neu5Ac(a2-6)Gal(b1-4)GlcNAc(b1-2)Man(a1-3)[GlcNAc(b1-2)Man(a1-6)]Man(b1-4)GlcNAc(b1-4)GlcNAc
# In short: as §1
# [5] = target: Neu5Ac(a2-6)Gal(b1-4)GlcNAc(b1-2)Man(a1-3)[GlcNAc(b1-2)Man(b1-4)GlcNAc(b1-2)Man(a1-6)]Man(b1-4)GlcNAc(b1-4)GlcNAc
# In short: as §1
# [6] = target: Neu5Ac(a2-6)Gal(b1-4)GlcNAc(b1-2)Man(a1-3)[Man(a1-6)]Man(b1-4)GlcNAc(b1-4)GlcNAc
# In short: as §1
# [7] = target: Neu5Ac(a2-6)Gal(b1-4)GlcNAc(b1-2)Man(a1-3)[Neu5Ac(a2-6)Gal(b1-4)GlcNAc(b1-2)Man(a1-6)]Man(b1-4)GlcNAc(b1-4)GlcNAc
# In short: as §1
# [8] = target: Neu5Ac(a2-6)Gal(b1-4)GlcNAc(b1-2)Man(a1-6)Man(b1-4)GlcNAc(b1-4)GlcNAc
# In short: as §1
# [9] = target: Neu5Ac(a2-6)Gal(b1-4)GlcNAc(b1-2)Man(a1-6)[Gal(b1-4)GlcNAc(b1-2)Man(a1-3)]Man(b1-4)GlcNAc(b1-4)GlcNAc
# In short: as §1
# [10] = target: Neu5Ac(a2-6)Gal(b1-4)GlcNAc(b1-2)Man(a1-6)[GlcNAc(b1-2)Man(a1-3)]Man(b1-4)GlcNAc(b1-4)GlcNAc
# In short: as §1
# [11] = target: Neu5Ac(a2-6)Gal(b1-4)GlcNAc(b1-2)Man(a1-6)[Man(a1-3)]Man(b1-4)GlcNAc(b1-4)GlcNAc
# In short: as §1
# [12] = target: Neu5Ac(a2-6)Gal(b1-4)GlcNAc(b1-3)Gal(b1-3)GlcNAc
# In short: as §1
# [13] = target: Neu5Ac(a2-6)Gal(b1-4)GlcNAc(b1-3)Gal(b1-4)GlcNAc
# In short: as §1
# [14] = target: Neu5Ac(a2-6)Gal(b1-4)GlcNAc(b1-3)Gal(b1-4)GlcNAc(b1-3)Gal(b1-4)GlcNAc
# In short: as §1
# [15] = target: Neu5Ac(a2-6)Gal(b1-4)GlcNAc(b1-3)Gal(b1-4)[Fuc(a1-3)]GlcNAc(b1-3)Gal(b1-4)[Fuc(a1-3)]GlcNAc
# In short: as §1
# [16] = target: Neu5Ac(a2-6)Gal(b1-4)GlcNAc(b1-3)GalNAc
# In short: as §1
# [17] = target: Neu5Ac(a2-6)Gal(b1-4)GlcNAc6S
# In short: as §1
# Neu5Ac(a2-6)GalNAc = target: Neu5Ac(a2-6)GalNAc
# In short: as §1
# [18] = target: Neu5Ac(a2-6)GalNAc(b1-4)GlcNAc
# In short: as §1
# [19] = target: Neu5Ac(a2-6)GlcNAc(b1-4)GlcNAc
# In short: as §1
# [20] = target: Neu5Ac(a2-6)GlcNAc(b1-4)GlcNAc(b1-4)GlcNAc
# In short: as §1
# Neu5Ac(a2-8)Neu5Ac = target: Neu5Ac(a2-8)Neu5Ac
# In short: as §1
# [21] = target: Neu5Ac(a2-8)Neu5Ac(a2-3)Gal(b1-4)Glc
# In short: as §1
# [22] = target: Neu5Ac(a2-8)Neu5Ac(a2-3)[GalNAc(b1-4)]Gal(b1-4)Glc
# In short: as §1
# [23] = target: Neu5Ac(a2-8)Neu5Ac(a2-8)Neu5Ac
# In short: as §1
# [24] = target: Neu5Ac(a2-8)Neu5Ac(a2-8)Neu5Ac(a2-3)Gal(b1-4)Glc
# In short: as §1
# [25] = target: Neu5Ac(a2-8)Neu5Ac(a2-8)Neu5Ac(a2-3)[GalNAc(b1-4)]Gal(b1-4)Glc
# In short: as §1
# [26] = target: Neu5Ac(a2-8)Neu5Ac(a2-8)Neu5Ac(a2-8)Neu5Ac(a2-3)[GalNAc(b1-4)]Gal(b1-4)Glc
# In short: as §1
# [27] = target: Neu5Ac(b2-6)Gal(b1-4)GlcNAc
# In short: as §1
# Neu5Ac(b2-6)GalNAc = target: Neu5Ac(b2-6)GalNAc
# In short: as §1
# [28] = target: Neu5Ac9Ac(a2-3)Gal(b1-3)GlcNAc
# In short: as §1
# [29] = target: Neu5Ac9Ac(a2-3)Gal(b1-4)GlcNAc
# In short: as §1
# [30] = target: Neu5Ac9Ac(a2-6)Gal(b1-4)GlcNAc
# In short: as §1
# [31] = target: Neu5Gc(a2-3)Gal(b1-3)GlcNAc
# In short: as §1
# [32] = target: Neu5Gc(a2-3)Gal(b1-3)[Fuc(a1-4)]GlcNAc
# In short: as §1
# Neu5Gc(a2-3)Gal(b1-4)Glc = target: Neu5Gc(a2-3)Gal(b1-4)Glc
# In short: as §1
# [33] = target: Neu5Gc(a2-3)Gal(b1-4)GlcNAc
# In short: as §1
# [34] = target: Neu5Gc(a2-3)Gal(b1-4)[Fuc(a1-3)]GlcNAc
# In short: as §1
# [35] = target: Neu5Gc(a2-6)Gal(b1-4)GlcNAc
# In short: as §1
# Neu5Gc(a2-6)GalNAc = target: Neu5Gc(a2-6)GalNAc
# In short: as §1
# [36] = target: Neu5Gc(b2-6)Gal(b1-4)GlcNAc
# In short: as §1
binder,measurement,setting,value
B1,glycan array binding signal (z-score),Neu5Ac(a2-6)Gal(b1-4)Glc,0.148
same,glycan array binding signal (z-score),[1],-0.001
same,glycan array binding signal (z-score),[2],-0.144
same,glycan array binding signal (z-score),[3],0.026
same,glycan array binding signal (z-score),[4],0
same,glycan array binding signal (z-score),[5],0.829
same,glycan array binding signal (z-score),[6],-0.5
same,glycan array binding signal (z-score),[7],0.043
same,glycan array binding signal (z-score),[8],-0.297
same,glycan array binding signal (z-score),[9],-0.211
same,glycan array binding signal (z-score),[10],-0.313
same,glycan array binding signal (z-score),[11],-0.315
same,glycan array binding signal (z-score),[12],-0.302
same,glycan array binding signal (z-score),[13],-0.267
same,glycan array binding signal (z-score),[14],-0.247
same,glycan array binding signal (z-score),[15],-0.298
same,glycan array binding signal (z-score),[16],-0.114
same,glycan array binding signal (z-score),[17],-0.299
same,glycan array binding signal (z-score),Neu5Ac(a2-6)GalNAc,-0.429
same,glycan array binding signal (z-score),[18],-0.386
same,glycan array binding signal (z-score),[19],-0.215
same,glycan array binding signal (z-score),[20],-0.455
same,glycan array binding signal (z-score),Neu5Ac(a2-8)Neu5Ac,-0.287
same,glycan array binding signal (z-score),[21],-0.098
same,glycan array binding signal (z-score),[22],-0.085
same,glycan array binding signal (z-score),[23],-0.331
same,glycan array binding signal (z-score),[24],-0.294
same,glycan array binding signal (z-score),[25],-0.208
same,glycan array binding signal (z-score),[26],-0.246
same,glycan array binding signal (z-score),[27],-0.216
same,glycan array binding signal (z-score),Neu5Ac(b2-6)GalNAc,-0.345
same,glycan array binding signal (z-score),[28],-0.241
same,glycan array binding signal (z-score),[29],0.016
same,glycan array binding signal (z-score),[30],-0.313
same,glycan array binding signal (z-score),[31],-0.114
same,glycan array binding signal (z-score),[32],-0.232
same,glycan array binding signal (z-score),Neu5Gc(a2-3)Gal(b1-4)Glc,0.836
same,glycan array binding signal (z-score),[33],-0.065
same,glycan array binding signal (z-score),[34],-0.177
same,glycan array binding signal (z-score),[35],-0.416
same,glycan array binding signal (z-score),Neu5Gc(a2-6)GalNAc,0.146
same,glycan array binding signal (z-score),[36],-0.419
